From article PMC8118270
Read-outs that look alike come from different tables or passages of the source. No constants are given. Whether binding was seen depends on the method and setting. Binding seen in cells or lysates may run through a third protein. Some entries that bind do so weakly or less than the wild type. For some assays here: Tags and fused reporters may be left off the sequences shown.

By UniProt entry, the sequences of proteins in these tests, tags left out.
UniProt O18640: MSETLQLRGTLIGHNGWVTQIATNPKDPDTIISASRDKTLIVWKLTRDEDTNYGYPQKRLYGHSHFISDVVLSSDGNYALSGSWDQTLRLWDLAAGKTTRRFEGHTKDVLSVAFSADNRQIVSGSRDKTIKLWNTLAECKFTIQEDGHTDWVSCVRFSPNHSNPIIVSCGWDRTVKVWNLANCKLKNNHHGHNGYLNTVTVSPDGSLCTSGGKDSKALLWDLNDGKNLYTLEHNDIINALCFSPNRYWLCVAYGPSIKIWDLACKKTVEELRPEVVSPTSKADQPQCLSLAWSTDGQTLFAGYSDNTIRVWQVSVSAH
UniProt Q9VL06: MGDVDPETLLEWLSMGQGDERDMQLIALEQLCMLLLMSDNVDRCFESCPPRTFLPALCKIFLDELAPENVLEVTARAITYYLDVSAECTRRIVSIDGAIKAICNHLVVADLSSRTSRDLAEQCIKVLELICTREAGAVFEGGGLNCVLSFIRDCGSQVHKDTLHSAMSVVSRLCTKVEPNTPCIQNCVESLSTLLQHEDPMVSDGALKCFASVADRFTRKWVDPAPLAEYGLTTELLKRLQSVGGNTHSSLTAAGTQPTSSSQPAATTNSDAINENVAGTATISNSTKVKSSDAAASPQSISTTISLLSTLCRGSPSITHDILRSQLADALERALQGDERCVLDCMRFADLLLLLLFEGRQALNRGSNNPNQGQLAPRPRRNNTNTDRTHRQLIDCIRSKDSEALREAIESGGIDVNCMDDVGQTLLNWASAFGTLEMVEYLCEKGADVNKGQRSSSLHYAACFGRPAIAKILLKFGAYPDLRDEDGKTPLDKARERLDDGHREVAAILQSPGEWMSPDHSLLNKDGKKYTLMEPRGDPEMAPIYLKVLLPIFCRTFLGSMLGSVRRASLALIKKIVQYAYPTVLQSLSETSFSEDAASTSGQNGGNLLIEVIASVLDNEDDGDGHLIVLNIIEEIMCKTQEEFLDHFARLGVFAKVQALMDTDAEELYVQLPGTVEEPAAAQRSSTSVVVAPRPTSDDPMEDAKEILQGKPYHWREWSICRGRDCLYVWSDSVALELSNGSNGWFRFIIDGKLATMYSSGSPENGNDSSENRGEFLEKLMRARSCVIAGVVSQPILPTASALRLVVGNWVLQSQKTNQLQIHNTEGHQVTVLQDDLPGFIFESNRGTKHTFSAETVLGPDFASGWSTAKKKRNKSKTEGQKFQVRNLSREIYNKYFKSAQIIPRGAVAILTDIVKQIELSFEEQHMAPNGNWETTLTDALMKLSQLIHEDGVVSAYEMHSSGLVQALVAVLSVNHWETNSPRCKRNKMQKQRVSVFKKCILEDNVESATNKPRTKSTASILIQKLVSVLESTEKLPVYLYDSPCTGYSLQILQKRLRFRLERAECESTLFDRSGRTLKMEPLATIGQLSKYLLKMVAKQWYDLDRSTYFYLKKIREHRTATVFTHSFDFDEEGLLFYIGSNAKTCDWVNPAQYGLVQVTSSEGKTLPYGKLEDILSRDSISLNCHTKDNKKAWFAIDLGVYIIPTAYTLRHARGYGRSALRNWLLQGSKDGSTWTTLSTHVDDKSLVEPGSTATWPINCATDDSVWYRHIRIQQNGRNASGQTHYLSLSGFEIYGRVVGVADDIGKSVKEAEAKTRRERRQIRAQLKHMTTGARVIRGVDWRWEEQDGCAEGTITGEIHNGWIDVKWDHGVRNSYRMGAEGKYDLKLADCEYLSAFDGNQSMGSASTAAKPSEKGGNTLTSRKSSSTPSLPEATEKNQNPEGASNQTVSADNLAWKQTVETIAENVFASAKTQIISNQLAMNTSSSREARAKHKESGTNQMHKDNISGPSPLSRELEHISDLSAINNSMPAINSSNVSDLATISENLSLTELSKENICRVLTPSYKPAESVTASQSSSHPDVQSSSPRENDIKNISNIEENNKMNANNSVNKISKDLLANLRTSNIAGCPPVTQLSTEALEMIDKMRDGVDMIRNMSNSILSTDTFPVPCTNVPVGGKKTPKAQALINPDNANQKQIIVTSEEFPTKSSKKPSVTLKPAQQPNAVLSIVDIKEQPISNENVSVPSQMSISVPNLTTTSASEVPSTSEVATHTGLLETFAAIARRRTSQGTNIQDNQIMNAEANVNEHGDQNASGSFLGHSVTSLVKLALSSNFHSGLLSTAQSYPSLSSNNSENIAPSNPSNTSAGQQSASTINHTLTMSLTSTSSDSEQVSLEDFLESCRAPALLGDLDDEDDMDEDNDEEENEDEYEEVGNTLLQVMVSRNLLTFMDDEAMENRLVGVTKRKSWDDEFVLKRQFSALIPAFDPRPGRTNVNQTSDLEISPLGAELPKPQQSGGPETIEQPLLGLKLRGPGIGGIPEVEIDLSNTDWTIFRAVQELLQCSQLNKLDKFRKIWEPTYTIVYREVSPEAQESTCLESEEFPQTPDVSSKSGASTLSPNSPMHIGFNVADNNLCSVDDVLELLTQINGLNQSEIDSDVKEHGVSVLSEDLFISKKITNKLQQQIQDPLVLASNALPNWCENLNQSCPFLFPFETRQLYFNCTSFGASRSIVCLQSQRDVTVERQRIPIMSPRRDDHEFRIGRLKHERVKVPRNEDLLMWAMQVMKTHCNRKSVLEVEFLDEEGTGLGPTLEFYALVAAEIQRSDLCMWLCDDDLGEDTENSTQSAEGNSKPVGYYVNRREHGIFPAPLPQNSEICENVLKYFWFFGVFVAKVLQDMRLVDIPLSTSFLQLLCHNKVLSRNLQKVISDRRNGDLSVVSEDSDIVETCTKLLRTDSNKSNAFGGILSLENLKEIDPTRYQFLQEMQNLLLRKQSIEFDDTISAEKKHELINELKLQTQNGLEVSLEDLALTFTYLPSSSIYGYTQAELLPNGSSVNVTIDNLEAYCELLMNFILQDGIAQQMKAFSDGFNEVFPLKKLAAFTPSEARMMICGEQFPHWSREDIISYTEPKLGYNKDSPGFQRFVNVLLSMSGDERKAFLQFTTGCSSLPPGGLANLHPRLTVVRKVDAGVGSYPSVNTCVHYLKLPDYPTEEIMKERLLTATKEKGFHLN
UniProt P40417: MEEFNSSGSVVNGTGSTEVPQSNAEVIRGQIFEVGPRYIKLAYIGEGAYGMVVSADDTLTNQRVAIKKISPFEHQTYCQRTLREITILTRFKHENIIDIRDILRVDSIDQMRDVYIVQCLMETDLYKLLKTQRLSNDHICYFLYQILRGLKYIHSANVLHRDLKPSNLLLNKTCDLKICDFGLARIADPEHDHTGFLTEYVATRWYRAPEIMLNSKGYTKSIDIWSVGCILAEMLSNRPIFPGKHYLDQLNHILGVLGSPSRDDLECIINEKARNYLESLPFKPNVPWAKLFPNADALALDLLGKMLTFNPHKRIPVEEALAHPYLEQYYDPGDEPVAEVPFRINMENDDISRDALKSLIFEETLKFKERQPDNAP

What was measured:
[1] = target: GFP-tagged RACK1 (Receptor for activated C kinase 1) (Drosophila) (UniProt O18640); assay: co-IP; S2 cells co-expressing RACK1-GFP (or GFP) with the tagged partner; immunoprecipitation with anti-GFP (GFP beads, Chromotek), western blot against the partner's tag; lysis buffer 10 mM Tris-HCl pH 7.4, 150 mM NaCl, 0.5 mM EDTA, 0.5% NP-40
[2] = target: GFP-tagged RACK1 (Receptor for activated C kinase 1) (Drosophila) (UniProt O18640); assay: as above; remark: listed apart in the source

## Myc-tagged UFD4 (Ubiquitin fusion-degradation 4-like) (from UniProt Q9VL06 1-2727)
[1]
  binding: no binding

## FLAG-tagged ERK (from UniProt P40417 1-376)
[1]
  binding: binds

B1: 1864–2374 mCherry-tagged POE (domain or fragment, UniProt Q9VLT5 1864-2374)
chain: RIGSNEVRDSAGIGSYLPSHMSLLAGKKRSSLPVGQPVLTRKDSLTNERIAVLTKLLEPYRETLQHQDQWLLVVRCILEYFDLLLPSINENCMLYSIVGCHKRATAALERLHLLEQSFQVTDQLMFATLGSQEGAFENVRMNYSGDQGQTIKHLLSSGVVRRVAFCCLSSPHGRRQQLAVSHEKGKVTILQLSALLKQADASKRKLTLTQLSSAPIACTVISLAANPCNEDCLAVCGLKECHILTFSSSGSTNEHIVVNPQLENGNYIKKAVWLPGSQTLLAVVTSDYVKIYDLAVDTYSPKYYYLVAVGKIRDCTFVYQDGNYNMLTFASSGYIYTQQLDQQSLAVHGDFYVTNTLELSHQHIKDIAGHIGGGGVSIYYSHTLQLLFYSYSCGRSFFSPLTNVSEGVKGIYHLDTNSASKSASKGPLQPLVQWTEVTGHPGLVYASMQTSNNPIILMITPERIYLQEIKAQSAKSRIMDVVGIRHAVAGVEKTTLLLLCEDGSLRIFSAQ
[2]
  binding: binds

B2: 3377–4492 mCherry-tagged POE (domain or fragment, UniProt Q9VLT5 3377-4492)
chain: RMYRDGHSLDAHFRVVKRVCNIVSSKTGAPYNANPPMLSYDALVELTEHLRTCQEISQMRTGNWQKFCVVHEDALAMLMEIACYQLDDGVSPIIIQLLQAAVCNLPPPSGSKQAQPQPSTSSASGKLRTDREKSEDTDAYYSKFDPAQCGTFVHQIFRYACDALIIRFVRIFLLENNITQLRWQAHSFMTGLFEHANERQREKLLNIFWNLWPLVPTYGRRTAQFVDLLGYLTLSTRSITERLPEFVSRAVDVLRQQNELLCKHPNAPIYTTLESILQVNGYYLESEPCLVCNNPEVPMANIKLPSVKSDSKYTTTTMIYKLVQCHTISKLIVRIADLKRTKMVRTINVYYNNRSVQAVVELKNRPALWHKARSVSLQSAQTELKIDFPLPITACNLMIEFADFFETVSGSSENLQCPRCSAAVPAYPGVCGNCGENVFQCHKCRAINYDEKDPFLCHSCGFCKYAKFDFSMYARVCCAVDPIESAEDRVKTVSLIHSSLERADRNYRQLLTNKQMLELLIQKVAEHRSSDRMVEDNMASVHSTSQVNKIIQLLAQKYCVESRTSFEELSKIVQKVKACRSELVAYDRQQQDQPPVNPGSTTGAENPTTNRCYGCALASTEQCLTLLRAMAYNYDCRVCLYSQGLVSELAEHNLRRGTPLIQEEVRNLLVVLTKDNAEACMHLLQLVTTRVKNALMGSIPLISLEAAVHQEMTLLEVLLGQDDICWEYKLKVIFELFISNCRLPRGPVTAVLHPCLRIMQNLICPVLPGSKPNQKVATTDLCSMKMFEGNTVDYRAWLNSDRNHEYAAWSKRMPSNNQAKLKNAKDQNVAASGGSDAPPKSRREVRVAFLSEKYGKRWRERVLDKQRVIKPLVFNAKWIQPLLFNANSRFGRQLACSLLSSLSRTNERRQQALNMLTSFLKHVGEAGEASAEYLMLYKNMATEQPWLQYLVLKGVLSQISQLLAIEISKVHRMEEYSLSSDLSLGYALRQYVELLWLLLECPNIRRTYKTRMLGPVLESYLALRSLVVQRTRLIDDAQEKLLEMLEDMTSGTEEETRAFMEILIDTVEKTRMNDIKTPVFVFERLYSIIHPEEHDESEFYMTLEKDPQQEDFLQGR
[2]
  binding: binds

B3: HA-tagged KCMF1 (Potassium channel modulatory factor 1) (protein, UniProt Q95RX5 1-599)
chain: MSRHEGVSCDSCLKSNFNGRRYKCLICYDYDLCADCYEDGVTSTRHLVEHPMQCILTRSDIELYFGGEMLASDQPQSFTCPYCKKMGFSDATLLEHVSAEHTETSLEVVCPVCAGLPGGEPNLVTDDFAGHLTLEHRQGPRELISFLDEPSAIRHGGGVRRIPGRTLGGPRTRRSNMHFSSSSGLSALSPSGRESVDPIAELLSQLSGVRRGGPPTSQLQQLQMQMQLDRQQVTASRQIDRLPRRAHPIVSTSNSNAAMAEVISGGAGGSGGSGAVGSGSGGGSGATAPPNLRTTEWPVTASFSTSASNHSQTQSSLAANSLNAREAIGTSSSAGSNVLGISVGVGGTANGNGGAGSSGVATGAGGAGQGGGQGGAAAGESFLLAQFMQPTFTEAEWAVVESMRADRSMFVQSLMLSMLCTEALDLNASDESLAKSDNVNKGQQQQQEDAEAEAQAETLLNNNADVEQQQQQQQLQPAMVRQVNQMQQTSPEDFVCDEYRYKNKKANTTQTSGTGGLGGAGATAAPGGGASGAGTKPTADRGIERRSGRPPPGEMATGSQQPQQQQQSTANPAASQQKYKQNASAATAAGNTNQIPDTR
[2]
  binding: no binding
